The results in this text go back to patent publication US20250382361A1, “AFFIBODIES, HYDROGELS CONTAINING AFFIBODIES, AND USES THEREOF” (University of Oregon, priority 2024, published 2025).

The assay relates to NIH/3T3-Luc cells. Put plainly: PDGF bioactivity luciferase reporter assay. The class given is cell-based. The conditions noted are these: affibody co-incubated with rhPDGF-BB, FIGS. 30C-30F. How it is done:
NIH/3T3 fibroblast cells (ATCC) were thawed, seeded at 10,000 cell/cm^2, and expanded in growth medium consisting of DMEM containing 10% (v/v) fetal bovine serum (R&D Systems, Minneapolis, MN). Cultures were routinely maintained at 37° C. and 5% CO2 and passaged at 60-70% confluence. After three passages of expansion, NIH/3T3 cells were grown in Eagle's Minimal Essential Medium (EMEM, ATCC) for a single passage prior to transfection. Transfection mixtures were prepared according to the manufacturer's protocols. Briefly, 2500 ng of luciferase reporter plasmid pGL4.33 [luc2P/SRE/Hygro] (Promega), which contains a serum response element that regulates luciferase expression as a function of Rhoa GTPase activation and multiple mitogen activated phosphorylated kinase (MAPK) pathways, was combined with 12.5 μL of Lipofectamine Plus™ reagent and 227.5 μL of Opti-MEM buffer (Thermo Fisher Scientific, Waltham, MA) and mixed for 10 minutes at room temperature. Concurrently, Lipofectamine Plus™ mix was prepared by combining 14.3 μL of Lipofectamine Plus™ solution with 271.7 μL of Opti-MEM buffer solution for 10 minutes. Lipofectamine Plus™ mix was then combined with Plus Reagent DNA mix at a 1:1 ratio and incubated for an additional 15 minutes. During this step, NIH/3T3 cells were trypsinized and seeded into 96-well plates at 40,000 cells/cm^2 in 135 μl of EMEM. Cells were then transfected by adding 65 μL of Lipofectamine Plus Reagent DNA mix per well and incubated for 48 h at 37° C. and 5% CO2. Individual wells were combined to establish a polyclonal population of transfected cells. Cells were expanded and passaged 4 times between 60-70% confluency in growth medium containing 200 μg/mL hygromycin (selective medium) to remove the transiently transfected population, then continually passaged in selective medium to maintain the stably transfected NIH/3T3 cell population. Stably transfected NIH/3T3 cells, hereafter referred to as NIH/3T3-Luc, were expanded and stored in liquid nitrogen at post-transfection passage 5 until use.
NIH/3T3-Luc cells were seeded at 31,250 cells/cm^2 and incubated in 100 μL of growth medium overnight in 96 well plates. […] Luminescence was then measured using SpectraMax 13 plate reader (Molecular Devices, San Jose, CA).
PDGF bioactivity was assessed using NIH/3T3 cells transfected with a firefly luciferase gene reporter plasmid that links multiple ERK1/2 signaling pathways, including PDGFRβ signaling, to luciferase expression through a serum response element under the regulation of ERK1/2 (FIG. 30A). […] Firefly luciferase expression was assessed via the conversion of 5′-fluoroluciferin to oxyfluoroluciferin, which generates a stable luminescent output correlated to firefly luciferase concentration. […]
On the technique in general: A reporter such as luciferase makes a cellular process visible.

Consider “AEAKYAFELWEAQHEIQQLPNLRPDQIAAFAMALYDDPSQSSELLSEAKKLNDSQAPK [SEQ ID NO: 59]”, for which the “luciferase expression vs rhPDGF-BB treatment only” value was “decreased”.
